Data as given in PubChem BioAssay AID360 (National Center for Advancing Translational Sciences (NCATS), 2006).
About 550 (1.1%) of roughly 48,000 compounds were called active. Another 4% or so got no clear call; they are omitted. No stated cut-off is given here; in the data, active means potency below about 15 µM; inconclusive means mostly about 16 µM to 33 µM; inactive means weaker than that. The list shows a part of the results.

The compounds below were run against Lysosomal acid glucosylceramidase (Homo sapiens) (UniProt P04062) (assay: Glucocerebrosidase). Details: purified enzyme, resorufin glucoside fluorescence (screen aimed at inhibitors), 20 min.
How it was run: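 Wild-type enzyme at 0.2 nM final in 50mM citric acid/KH2PO4, 10mM sodium taurocholate, 0.01% tween-20, pH 5.9, with resorufin beta-D-glucopyranoside at 30 uM final. Compounds titrated, 20 min at RT, red fluorescence read; AC50 from titration.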
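Further: the screen sought inhibitors.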
Potency means the concentration at half of the fitted maximal effect.

Sequence of UniProt P04062 (P04062 whole entry, looked up): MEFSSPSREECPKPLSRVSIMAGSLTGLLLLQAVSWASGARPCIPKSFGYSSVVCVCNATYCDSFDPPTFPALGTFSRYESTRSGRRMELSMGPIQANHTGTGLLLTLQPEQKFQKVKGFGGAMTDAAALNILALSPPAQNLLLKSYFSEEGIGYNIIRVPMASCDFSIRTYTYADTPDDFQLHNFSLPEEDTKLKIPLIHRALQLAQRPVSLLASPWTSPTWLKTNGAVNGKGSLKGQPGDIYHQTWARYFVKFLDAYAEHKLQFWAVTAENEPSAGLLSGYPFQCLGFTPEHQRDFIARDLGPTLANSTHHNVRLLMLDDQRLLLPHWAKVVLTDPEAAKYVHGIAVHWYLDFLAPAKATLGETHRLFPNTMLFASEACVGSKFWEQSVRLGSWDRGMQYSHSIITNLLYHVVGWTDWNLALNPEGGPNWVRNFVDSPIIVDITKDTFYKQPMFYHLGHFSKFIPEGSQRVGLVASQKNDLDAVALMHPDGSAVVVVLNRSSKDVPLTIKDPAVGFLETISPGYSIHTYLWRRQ

Structure (SMILES)	Potency
Cc1cnn(-c2cc(Oc3ccccc3)ncn2)c1	inactive: > 76.9 µM
Cc1cc2n(n1)C(c1sccc1C)Nc1ccccc1-2 (configuration not stated)	inactive: > 76.9 µM
O=C(O)CCC1=C2c3ccccc3CCN2C(=O)CC1	inactive: > 76.9 µM
CSc1ccccc1NC(=O)Nc1ccccc1	inactive: > 76.9 µM
COCc1nnc(N)s1	inactive: > 76.9 µM
CCOC(=O)N1CCC(N2Cc3cccc(C(=O)N4CC(C)CC(C)C4)c3C2=O)CC1 (configuration not stated)	inactive: > 76.9 µM
COc1ccc(N(CC(=O)Nc2ccc(C)c(C)c2)S(=O)(=O)c2c(C)n[nH]c2C)cc1	active: 15.2 µM
CCOC(=O)Cc1csc(SCn2nnc3ccccc3c2=O)n1	inactive: > 76.9 µM
C(/CCc1ccccc1)=N\n1cnnc1	inactive: > 76.9 µM
CCOC(=O)c1cnc(SCC(=O)Nc2ccc(NC(C)=O)c(OC)c2)nc1N	inactive: > 76.9 µM
CC(=O)c1cccc(NC(=O)C2CCN(S(=O)(=O)c3ccc(C)cc3)CC2)c1	inactive: > 76.9 µM
CC1(C)Cc2nc3oc4c(NCc5ccccc5)ncnc4c3cc2CO1	inactive: > 15.4 µM
CC(=O)c1cccc(NC(=O)CN2C(=O)NC3(CCCCCCC3)C2=O)c1	inactive: > 76.9 µM
COc1ccc(NC(=O)NCc2ccccn2)cc1OC	inactive: > 76.9 µM
CCCN(CCC)CCNC(=O)c1cc2c(C)nc3ccccc3c2o1	inactive: > 76.9 µM
Cc1ccccc1Cn1nnc(-c2cccc(C(=O)O)c2)n1	inactive: > 76.9 µM
CCN1CCN(C(c2cc3cc4c(cc3[nH]c2=O)OCO4)c2nnnn2C(C)(C)CC)CC1 (configuration not stated)	inactive: > 76.9 µM
CCCCOc1ccc(-c2nnn(CC(=O)Nc3ncc(CC(=O)OCC)s3)n2)cc1	inactive: > 76.9 µM
CCOC(=O)C1=C(N)Oc2cc(C)[nH]c(=O)c2C1c1ccncc1 (configuration not stated)	inactive: > 76.9 µM
O=S(=O)(O)CCN1CCOCC1	inactive: > 76.9 µM
Cc1nc(=O)c(-c2ccccc2)c(C)n1Cc1ccccc1	inactive: > 76.9 µM
CCOc1ccc(Oc2nc(Nc3ccc(C)cc3)nc(N(C)C)n2)nn1	inactive: > 76.9 µM
O=C(c1c[nH]c(=O)n(-c2ccccc2)c1=O)N1CCc2ccccc21	inactive: > 76.9 µM

Structure (SMILES)	Potency
Clc1ccc(Cc2noc(CN3CCN(c4ccccc4)CC3)n2)c(Cl)c1	inactive: > 76.9 µM
COC(=O)Cn1ccc(N(C)C)c(C#N)c1=O	inactive: > 76.9 µM
COC(=O)CSc1nc(C2CC2)nc2ccccc12	inactive: > 76.9 µM
COc1cc(NS(=O)(=O)c2ccc(C)cc2C)cc(OC)c1OC	inactive: > 76.9 µM
COc1ccc2cc(C(c3nnnn3Cc3ccc(F)cc3)N3CCCCCC3)c(=O)[nH]c2c1 (configuration not stated)	inactive
CCOC(=O)CSc1nc2cccnc2n1-c1ccc(F)cc1	inactive: > 76.9 µM
COc1ccccc1CN(Cc1cc2cc(C)cc(C)c2[nH]c1=O)Cc1nnnn1CC1CCCO1 (configuration not stated)	inactive: > 76.9 µM
COc1ccc2nc(NC(=O)CN3CCN(C)CC3)sc2c1	inactive: > 76.9 µM
Cc1cc(C)c(C)c(OCC(=O)NCc2nc(-c3ccccc3)no2)c1	inactive: > 76.9 µM
O=C(Nc1ccc(N2CCOCC2)cc1)c1ccc2nc(-c3ccco3)c(-c3ccco3)nc2c1	inactive: > 76.9 µM
COc1ccccc1-n1cnc(N)c1C(C)=O	inactive: > 76.9 µM
CC(=O)c1cnc(Nc2nc(C)c3cccc(C)c3n2)nc1C	inactive: > 76.9 µM
CCCc1[nH]nc2c1C(CCC)C(C#N)=C(N)O2 (configuration not stated)	inactive: > 76.9 µM
Cc1ccc2c(c1)N(CCCC(=O)NCC1COc3ccccc3O1)C(=O)CO2 (configuration not stated)	inactive: > 76.9 µM
COc1cc(C(=O)N(C)c2nnc(-c3cccnc3)s2)cc(OC)c1OC	inactive: > 76.9 µM
O=C(c1ccncc1)N1CCN(C(=O)c2cccs2)CC1	inactive: > 76.9 µM
O=C(CN(C(=O)CCC(=O)Nc1nccs1)c1ccc(F)cc1)NCC1CCCO1 (configuration not stated)	inactive: > 76.9 µM
CCOC(=O)N1CCN(C(=O)c2ccc(C#CC3(O)CCCCC3)cc2)CC1	inactive: > 76.9 µM
O=C(NCc1ccccn1)C1CCN(S(=O)(=O)c2cnc[nH]2)CC1	inactive: > 76.9 µM
COc1cccc(-n2nnnc2SCC(=O)NCc2ccco2)c1	inactive: > 76.9 µM
COc1ccc2c3c(c(=O)oc2c1OCC(=O)C(C)(C)C)CCCC3	inactive: > 76.9 µM
Nc1nnc(SCc2cc3c(cc2Cl)OCO3)s1	inactive: > 76.9 µM
O=C(CSc1nnc2ccccn12)NC(=O)NC1CCCC1	inactive: > 76.9 µM

Structure (SMILES)	Potency
COc1ccccc1C(=O)Nc1ccc(S(=O)(=O)N2CCOCC2)cc1	inactive: > 76.9 µM
CCCNC(=O)Cn1cnc2sc(C(=O)N3CCCC(C(=O)OCC)C3)c(C)c2c1=O (configuration not stated)	inactive: > 76.9 µM
Cc1ccc(NS(=O)(=O)c2ccc(C(=O)N3CCCN(C)CC3)cc2)cc1	inactive: > 76.9 µM
CCOC(=O)c1[nH]c2ccc(OC)cc2c1NC(=O)CN1CCC2(CC1)OCCO2	inactive: > 76.9 µM
CCOC(=O)c1ncn2c1C(=O)OC2(C)C	inactive: > 76.9 µM
COc1ccc(Cl)cc1NC(=O)C1CCCN(S(=O)(=O)c2cccc3nonc23)C1 (configuration not stated)	inactive: > 76.9 µM
O=C1c2ccccc2-c2ccc(C(=O)N3CCOCC3)cc21	inactive: > 76.9 µM
O=C(Cn1nnc(-c2ccc(Cl)cc2)n1)NCC1CCCCC1	inactive: > 76.9 µM
COc1ccc(F)cc1CN1CCN(C(=O)CCC(=O)Nc2nnc(C(C)C)s2)CC1	inactive: > 76.9 µM
Cc1ccc(N2C(=O)C(Cl)=C(Nc3c(C)n(C)n(-c4ccccc4)c3=O)C2=O)cc1	inactive: > 76.9 µM
COc1ccc(C2C=C(c3ccc(Br)s3)Nc3ncnn32)cc1OC (configuration not stated)	inactive: > 76.9 µM
Nc1nncn1C(=O)c1cccs1	inactive: > 76.9 µM
Clc1cccc(N2CCN(CCNc3nc4ccccc4n4cnnc34)CC2)c1	inactive: > 76.9 µM
O=c1c2c(-c3ccccc3)csc2nc2n1CCC2	inactive: > 76.9 µM
Cc1c(C(=O)Nc2cccc(C(F)(F)F)c2)oc2ccc(S(=O)(=O)N3CCOCC3)cc12	inactive
CCn1nnnc1SCC(=O)Nc1ccc(OCc2ccccc2)cc1	inactive: > 76.9 µM
COC(=O)C(CC(=O)Nc1cc(C)ccc1C)Nc1ccccc1OC (configuration not stated)	inactive: > 76.9 µM
O=C(CCC1N=C2c3ccccc3N=C(SCc3ccccc3Cl)N2C1=O)NCc1ccco1 (configuration not stated)	inactive: > 76.9 µM
CCOC(=O)C1CCN(C(=O)Nc2ccc(Cl)cc2Cl)CC1	inactive: > 76.9 µM
CCOCc1nnc(NC(=O)COC)s1	inactive: > 76.9 µM
CCN(CC)c1ccc(NC(=O)CN2CCN(c3ccc(F)cc3)CC2)cc1	inactive: > 76.9 µM
CCOC(=O)Nc1cccc(Cl)c1C	inactive: > 76.9 µM
Cc1[nH]n2c(=O)c3c(nc2c1-c1ccc(Cl)cc1)CCC3	active: 11.7 µM

Structure (SMILES)	Potency
O=C1NC2(CCCc3ccccc32)C(=O)N1Cc1nnc(-c2ccccc2Br)o1 (configuration not stated)	inactive: > 76.9 µM
Cc1c(C(=O)N2CCOCC2)sc(NC(=O)c2ccc3c(c2)OCO3)c1C#N	inactive: > 76.9 µM
N#CCSCC(=O)Nc1ccc(F)cc1	inactive: > 76.9 µM
CCOc1ccc2nc(NC(=O)CSc3nnc(-c4ccncc4)n3CC3CCCO3)sc2c1 (configuration not stated)	inactive: > 76.9 µM
Cc1noc(C)c1CSc1nc2ccccc2nc1NS(=O)(=O)c1ccc(Cl)cc1	inactive: > 76.9 µM
O=c1c2ccccc2nnn1CSc1nc2ccccc2c(=O)n1Cc1ccco1	inactive: > 76.9 µM
Cc1cc(C(=O)NCCC2=CCCCC2)c(C)o1	inactive: > 76.9 µM
Cc1ccc(C)c(N2CCN(C(=O)c3cc(S(=O)(=O)N4CCOCC4)ccc3F)CC2)c1	inactive: > 76.9 µM
CC1CCCC(C)N1C(=O)c1cc(-c2cccs2)on1 (configuration not stated)	inactive: > 76.9 µM
Cc1cccc(NC(=O)CNc2cc(C)ccc2C)c1	inactive: > 76.9 µM
CC12COC3(C(=O)Nc4cccnc4)CC1CCC32C (configuration not stated)	inactive: > 76.9 µM
CCC(C)c1ccc(O)c(NC(=O)c2cncc(Br)c2)c1 (configuration not stated)	inactive: > 76.9 µM
O=C1CCCc2c1cc(C(=O)NCc1ccco1)c(=O)n2-c1ccc(Cl)cc1	inactive: > 76.9 µM
C(=N\n1cnnc1)/c1ccc2c(c1)OCCO2	inactive: > 76.9 µM
CC1CN(c2nc3ccccn3c(=O)c2/C=C(\C#N)S(=O)(=O)c2ccccc2)CC(C)O1 (configuration not stated)	inactive: > 76.9 µM
COc1ccc(CCNC(=O)CC2COc3ccccc3O2)cc1OC (configuration not stated)	inactive: > 76.9 µM
O=C(COc1ccc(S(=O)(=O)N2CCCC2)cc1Cl)Nc1ccc2c(c1)OCO2	inactive: > 76.9 µM
CCOC(=O)C1=C(C)NC(=O)NC1c1cccc(O)c1 (configuration not stated)	inactive: > 76.9 µM
COCCCn1c(C(C)C)nc2oc3cc(OC)ccc3c(=O)c2c1=O	inactive: > 76.9 µM
CCSC1=NCN(CCCC(=O)O)CN1	inactive: > 76.9 µM
c1coc(-c2nn3c(-c4ccco4)nnc3s2)c1	inactive: > 76.9 µM
Cc1ccc2c(CSc3nc4ccccc4c(=O)n3CCCO)cc(=O)oc2c1	inactive: > 76.9 µM
Cc1ccc(NC(=O)COc2nc(C)cs2)cc1	inactive: > 76.9 µM
